The values below come from article PMC12820563, “FoxP3 forms a head-to-head dimer in vivo and stabilizes its multimerization on adjacent microsatellites”.

The list shows a part of the results.

The test addresses T1, MBP-FoxP1dN (Mus musculus, UniProt P58462 326-579).
T1 sequence: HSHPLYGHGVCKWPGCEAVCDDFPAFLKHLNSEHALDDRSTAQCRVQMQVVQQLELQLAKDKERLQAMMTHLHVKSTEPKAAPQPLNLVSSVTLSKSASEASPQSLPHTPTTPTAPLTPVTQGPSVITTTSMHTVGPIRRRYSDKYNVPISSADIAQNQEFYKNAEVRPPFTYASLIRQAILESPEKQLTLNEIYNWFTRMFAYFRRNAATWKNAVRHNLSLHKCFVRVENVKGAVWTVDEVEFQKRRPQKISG
The test can be described thus: PD-seq (MBP pull-down with sequencing); 20 mM Tris-HCl pH 7.5, 100 mM NaCl, 1.5 mM MgCl2, 0.4 uM protein, 0.1 uM dsDNA library, 30 min, room temperature, amylose pull-down; high values mean tight binding. As to conditions: protein: recombinant; tags: His6-MBP; chain copies: 2; dsDNA, one strand shown. In a few lines: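 The N-terminus-lacking fragment of mouse FoxP3 or FoxP1 carried a His6-MBP tag and was expressed in E. coli. At 0.4 µM it was incubated with 0.1 µM Klenow-filled degenerate double-stranded DNA library for 30 min at room temperature in Tris pH 7.5 buffer with NaCl and MgCl2, and complexes were caught on amylose resin, washed three times, released with proteinase K, PCR-barcoded and Illumina-sequenced. Binding is reads-per-million enrichment of pull-down over input with replicates pooled.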
Take “GATGATTGTTCTCCCAGCTGATGAATTTTACCGATCGAGTAAACAAATTTTCCTAATCTTTCTGTTCAAGCGCCATCTAC”: the binding signal is 0.896 RPM ratio (pull-down/input).

Turning to “GATGATTGTTCTCCCAGCTGATGAATTGGATGGGTCGAGTAAACAAATTTTCCTAATCTTTCTGTTCAAGCGCCATCTAC”, the binding signal was 0.805 RPM ratio (pull-down/input).

As to “GATGATTGTTCTCCCAGCTGATGAATTAACCAATTCGAGTAAACAAATTTTCCTAATCTTTCTGTTCAAGCGCCATCTAC”, the binding signal was 0.958 RPM ratio (pull-down/input).

“GATGATTGTTCTCCCAGCTGATGAATTTCGTAACTCGAGTAAACAAATTTTCCTAATCTTTCTGTTCAAGCGCCATCTAC”: the binding signal is 0.927 RPM ratio (pull-down/input).

Turning to “GATGATTGTTCTCCCAGCTGATGAATTCTAAAGCTCGAGTAAACAAATTTTCCTAATCTTTCTGTTCAAGCGCCATCTAC”, the binding signal was 0.835 RPM ratio (pull-down/input).

In the case of “GATGATTGTTCTCCCAGCTGATGAATTATTCGTATCGAGTAAACAAATTTTCCTAATCTTTCTGTTCAAGCGCCATCTAC”, the binding signal is 1.09 RPM ratio (pull-down/input).

Regarding “GATGATTGTTCTCCCAGCTGATGAATTAGCCGAATCGAGTAAACAAATTTTCCTAATCTTTCTGTTCAAGCGCCATCTAC”, the binding signal is 0.852 RPM ratio (pull-down/input).

“GATGATTGTTCTCCCAGCTGATGAATTTTTTCGTTCGAGTAAACAAATTTTCCTAATCTTTCTGTTCAAGCGCCATCTAC”: the binding signal was 1.05 RPM ratio (pull-down/input).

Regarding “GATGATTGTTCTCCCAGCTGATGAATTAGCCCCATCGAGTAAACAAATTTTCCTAATCTTTCTGTTCAAGCGCCATCTAC”, the binding signal is 0.834 RPM ratio (pull-down/input).

Regarding “GATGATTGTTCTCCCAGCTGATGAATTTGATACATCGAGTAAACAAATTTTCCTAATCTTTCTGTTCAAGCGCCATCTAC”, the binding signal is 1.19 RPM ratio (pull-down/input).

Take “GATGATTGTTCTCCCAGCTGATGAATTATCTATATCGAGTAAACAAATTTTCCTAATCTTTCTGTTCAAGCGCCATCTAC”: the binding signal was 1.14 RPM ratio (pull-down/input).

“GATGATTGTTCTCCCAGCTGATGAATTCATGTTGTCGAGTAAACAAATTTTCCTAATCTTTCTGTTCAAGCGCCATCTAC”: the binding signal was 2.26 RPM ratio (pull-down/input).

Turning to “GATGATTGTTCTCCCAGCTGATGAATTATAAAGGTCGAGTAAACAAATTTTCCTAATCTTTCTGTTCAAGCGCCATCTAC”, the binding signal is 0.947 RPM ratio (pull-down/input).

As to “GATGATTGTTCTCCCAGCTGATGAATTTCGGTGCTCGAGTAAACAAATTTTCCTAATCTTTCTGTTCAAGCGCCATCTAC”, the binding signal was 0.846 RPM ratio (pull-down/input).

For “GATGATTGTTCTCCCAGCTGATGAATTGGGTCTGTCGAGTAAACAAATTTTCCTAATCTTTCTGTTCAAGCGCCATCTAC”, the binding signal is 0.86 RPM ratio (pull-down/input).

As to “GATGATTGTTCTCCCAGCTGATGAATTCTGTCTTTCGAGTAAACAAATTTTCCTAATCTTTCTGTTCAAGCGCCATCTAC”, the binding signal was 0.845 RPM ratio (pull-down/input).

As to “GATGATTGTTCTCCCAGCTGATGAATTGTGTTACTCGAGTAAACAAATTTTCCTAATCTTTCTGTTCAAGCGCCATCTAC”, the binding signal was 1.29 RPM ratio (pull-down/input).

As for “GATGATTGTTCTCCCAGCTGATGAATTTACGAGGTCGAGTAAACAAATTTTCCTAATCTTTCTGTTCAAGCGCCATCTAC”, the binding signal is 1.09 RPM ratio (pull-down/input).

As to “GATGATTGTTCTCCCAGCTGATGAATTCACCTGATCGAGTAAACAAATTTTCCTAATCTTTCTGTTCAAGCGCCATCTAC”, the binding signal is 0.808 RPM ratio (pull-down/input).

Turning to “GATGATTGTTCTCCCAGCTGATGAATTATATAGATCGAGTAAACAAATTTTCCTAATCTTTCTGTTCAAGCGCCATCTAC”, the binding signal is 1.05 RPM ratio (pull-down/input).

On to “GATGATTGTTCTCCCAGCTGATGAATTCATATTTTCGAGTAAACAAATTTTCCTAATCTTTCTGTTCAAGCGCCATCTAC”, for which the binding signal was 1.74 RPM ratio (pull-down/input).

Take “GATGATTGTTCTCCCAGCTGATGAATTTGCAATGTCGAGTAAACAAATTTTCCTAATCTTTCTGTTCAAGCGCCATCTAC”: the binding signal was 1.15 RPM ratio (pull-down/input).

Consider “GATGATTGTTCTCCCAGCTGATGAATTAAACGGGTCGAGTAAACAAATTTTCCTAATCTTTCTGTTCAAGCGCCATCTAC”, for which the binding signal was 0.869 RPM ratio (pull-down/input).

Regarding “GATGATTGTTCTCCCAGCTGATGAATTCCCAGAATCGAGTAAACAAATTTTCCTAATCTTTCTGTTCAAGCGCCATCTAC”, the binding signal is 0.889 RPM ratio (pull-down/input).

As to “GATGATTGTTCTCCCAGCTGATGAATTCGGCTAATCGAGTAAACAAATTTTCCTAATCTTTCTGTTCAAGCGCCATCTAC”, the binding signal was 0.837 RPM ratio (pull-down/input).

For “GATGATTGTTCTCCCAGCTGATGAATTTAGGGAGTCGAGTAAACAAATTTTCCTAATCTTTCTGTTCAAGCGCCATCTAC”, the binding signal was 0.905 RPM ratio (pull-down/input).

Take “GATGATTGTTCTCCCAGCTGATGAATTTTGGAAGTCGAGTAAACAAATTTTCCTAATCTTTCTGTTCAAGCGCCATCTAC”: the binding signal was 0.873 RPM ratio (pull-down/input).

On to “GATGATTGTTCTCCCAGCTGATGAATTATCTTCCTCGAGTAAACAAATTTTCCTAATCTTTCTGTTCAAGCGCCATCTAC”, for which the binding signal was 0.887 RPM ratio (pull-down/input).

Take “GATGATTGTTCTCCCAGCTGATGAATTCCGTCCATCGAGTAAACAAATTTTCCTAATCTTTCTGTTCAAGCGCCATCTAC”: the binding signal is 0.856 RPM ratio (pull-down/input).

As to “GATGATTGTTCTCCCAGCTGATGAATTCTTGCTCTCGAGTAAACAAATTTTCCTAATCTTTCTGTTCAAGCGCCATCTAC”, the binding signal is 0.781 RPM ratio (pull-down/input).

Take “GATGATTGTTCTCCCAGCTGATGAATTGAGTTTATCGAGTAAACAAATTTTCCTAATCTTTCTGTTCAAGCGCCATCTAC”: the binding signal was 1.41 RPM ratio (pull-down/input).
